{
  "source": "the supplement of paper PMC11417369",
  "note": "± gives the standard deviation of the averaged measurements. The list shows a part of the results.",
  "data": [
    {"system": "PfAP2-I AP2 domain 3 (GST-tagged)", "experiment": "gcPBM binding intensity (ln(normalized median fluorescence intensity)); higher = stronger DNA binding", "summary_of_the_method": "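Each value is the highest Masliner-normalised natural-log median intensity across replicate spots of either orientation of a probe. The probes were primer-extended double-stranded 36-bp intergenic genomic sequences on an Agilent 4 × 180k array, alongside negative controls, exposed for 1 h to GST-tagged P. falciparum DNA-binding domains expressed in E. coli. Bound protein was picked up with Alexa488 anti-GST antibody and scanned at 488 nm.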", "values": [
      {"sequence": "ATATATATTTATTTATGTACGAATAAATTTACGAAT [XGTACX_site5190]", "gcPBM binding intensity (ln)": "7.88 ± 0.35"},
      {"sequence": "AATATCATTATATAAGTGCATTTTTTAAAAGATAAA [GTGCAC_site9479]", "gcPBM binding intensity (ln)": "9.04 ± 0.22"},
      {"sequence": "TTAATAGGTCGAAGTAGTACATAAAAATATATATAT [XGTACX_site5960]", "gcPBM binding intensity (ln)": "8.87 ± 0.32"},
      {"sequence": "TAAACATTGTAAAGGAGTACAAAATTTTTTTTATGA [XGTACX_site7757]", "gcPBM binding intensity (ln)": "7.63 ± 0.59"},
      {"sequence": "AATAATAAAAAATACACACACATATATATATATTAC [CACACA_site3464]", "gcPBM binding intensity (ln)": "7.77 ± 0.47"},
      {"sequence": "TTTTTTTTTTTGTATCGTACATTTATAATGTTTATA [XGTACX_site6804]", "gcPBM binding intensity (ln)": "7.85 ± 0.76"},
      {"sequence": "CATACACAAGAAAATTCACACACACCCATATATATA [CACACA_site9288]", "gcPBM binding intensity (ln)": "8.44 ± 0.84"},
      {"sequence": "TCTTACAAAAAACAAACAGAGAAAAATATAAGGAAA [XGTACX_negctrl_site520]", "gcPBM binding intensity (ln)": "7.76 ± 0.47"},
      {"sequence": "AACATACAGAAACACACACACACACCCACACCCACA [CACACA_site493]", "gcPBM binding intensity (ln)": "8.2 ± 0.22"},
      {"sequence": "TTTTTTTCATATAACACACACACAAAAATAATGTGG [CACACA_site3688]", "gcPBM binding intensity (ln)": "8.03 ± 0.33"},
      {"sequence": "TAAGGTTCATTAAAGTGTACACATAAATACCGTAAC [XGTACX_site8212]", "gcPBM binding intensity (ln)": "8.11 ± 0.32"},
      {"sequence": "TGTAATAATTATTGCACGCACACAAAAACCTATAGA [CACACA_site2932]", "gcPBM binding intensity (ln)": "10.8 ± 0.88"},
      {"sequence": "ATTCTGAATGTTATGCGTACATATTAATCCTATTTA [XGTACX_site1216]", "gcPBM binding intensity (ln)": "7.92 ± 0.42"},
      {"sequence": "AAGTAAATATAATAAGGTACACATAAATAAATAAAT [XGTACX_site1740]", "gcPBM binding intensity (ln)": "7.96 ± 0.67"},
      {"sequence": "GGAAACACGATATATACACACATATTTATATTTATA [CACACA_site6250]", "gcPBM binding intensity (ln)": "7.88 ± 0.55"},
      {"sequence": "AGAAAAGGAAAATAAACATGCAAAAATAATATTAAA [TGCATGCA_site337]", "gcPBM binding intensity (ln)": "7.89 ± 0.76"},
      {"sequence": "TCCAAATAAATATATTGTACAGAATTATTGATACCT [XGTACX_site327]", "gcPBM binding intensity (ln)": "7.63 ± 0.36"},
      {"sequence": "ATGTTGTTATAAAGAGTGCAACGTATATGTATCCTT [GTGCAC_site9935]", "gcPBM binding intensity (ln)": "8.69 ± 0.47"},
      {"sequence": "TATATACCACATTGTTGTACGACACATTTACATTTT [XGTACX_site8370]", "gcPBM binding intensity (ln)": "8.21 ± 0.57"},
      {"sequence": "TTCTTTTAAAGGTATACATGCGCATGGATTTTTCAT [TGCATGCA_site223]", "gcPBM binding intensity (ln)": "7.95 ± 0.83"},
      {"sequence": "ATGTCTTTGAAAAAAAGTACTTAAAATTATAAAAAT [XGTACX_site147]", "gcPBM binding intensity (ln)": "7.96 ± 0.34"},
      {"sequence": "ACTGTCGTTTTAAAGAGTACATAAAATATTAAATTA [XGTACX_site3589]", "gcPBM binding intensity (ln)": "7.69 ± 0.35"},
      {"sequence": "AAAACTATTAATGCAAAAAATAAAATATAATAATAA [XGTACX_negctrl_site524]", "gcPBM binding intensity (ln)": "8.03 ± 1.1"},
      {"sequence": "TCAAAGCACAGATACACACACATATATATATATATA [CACACA_site287]", "gcPBM binding intensity (ln)": "9.37 ± 0.042"},
      {"sequence": "AATTAAAAAATTATCACACATATATATATATATATA [CACACA_site5789]", "gcPBM binding intensity (ln)": "9.42 ± 0.48"},
      {"sequence": "ATAAAAAAATAAAACACACACATATAGATTATAGAT [CACACA_site7343]", "gcPBM binding intensity (ln)": "7.88 ± 0.74"},
      {"sequence": "TAATTTGAAAAATTGTGTACTCATAAAATAAATAAA [XGTACX_site2138]", "gcPBM binding intensity (ln)": "7.97 ± 0.3"},
      {"sequence": "GATTTATATATATAAAATAATTGAATATTTTCTTTT [CACACA_negctrl_site801]", "gcPBM binding intensity (ln)": "7.35 ± 0.49"},
      {"sequence": "TTTATTTTTCATAATTGTACAAAAATAAATGGAAAC [XGTACX_site5144]", "gcPBM binding intensity (ln)": "8.46 ± 0.32"},
      {"sequence": "ATAGATGATATACGTAAACACACAAATAAAAAAAAT [CACACA_site9095]", "gcPBM binding intensity (ln)": "7.92 ± 0.71"},
      {"sequence": "TACAAATATAGACACACACACATATATATATATATA [CACACA_site585]", "gcPBM binding intensity (ln)": "9.38 ± 0.63"},
      {"sequence": "CATATATCATAAATATGTACGAAATAAAAGAATCAT [XGTACX_site942]", "gcPBM binding intensity (ln)": "7.96 ± 0.69"},
      {"sequence": "TTTTCTAAAATATTCATAATAAATCAAAAAAAAAAA [GTGCAC_negctrl_site320]", "gcPBM binding intensity (ln)": "7.82 ± 0.76"},
      {"sequence": "ATAAAAGGAATATTTGCATGTGGTAGTACATAACAT [TGCATGCA_site978]", "gcPBM binding intensity (ln)": "8.47 ± 0.29"},
      {"sequence": "TAATATTTTTATTATTAGAATTGTATATGTTTAATA [CACACA_negctrl_site1833]", "gcPBM binding intensity (ln)": "7.13 ± 0.38"},
      {"sequence": "TTTTCTTACTATTGTAGTACAATATTATATTCTTTT [XGTACX_site1925]", "gcPBM binding intensity (ln)": "8.21 ± 0.26"},
      {"sequence": "TATAAATATGTATATACACACTTTTAATATTCATAA [CACACA_site7856]", "gcPBM binding intensity (ln)": "7.59 ± 0.52"},
      {"sequence": "TGCGTATTCTTATTAGGTACACATATTCGTGATAAT [XGTACX_site5681]", "gcPBM binding intensity (ln)": "7.85 ± 0.27"},
      {"sequence": "TTAACAAAATATAGCACACATAAATATATATTTATG [CACACA_site351]", "gcPBM binding intensity (ln)": "8.57 ± 0.11"},
      {"sequence": "TAAAAAATTAATAAAGTGCATAAATATTACAATATT", "gcPBM binding intensity (ln)": "10.3 ± 0.4"},
      {"sequence": "TTTTCTAAATATTATAGTACTCTTAATAATATTAAC [XGTACX_site4222]", "gcPBM binding intensity (ln)": "7.68 ± 0.4"},
      {"sequence": "GACATATTAGAAGGGTGTACATACTTTTAATCATTT [XGTACX_site1698]", "gcPBM binding intensity (ln)": "8 ± 0.21"},
      {"sequence": "AATATTAAAATATAAACACACAAAATTCAATTATAT [CACACA_site5971]", "gcPBM binding intensity (ln)": "7.46 ± 0.81"},
      {"sequence": "ATTCATATATTTATTGCATGCAAAGTAAAATAAATA [TGCATGCA_site307]", "gcPBM binding intensity (ln)": "8.23 ± 0.67"}
    ]}
  ]
}
